# Measurements published in the supplement of paper PMC3334620.
# Over roughly 33,000 sequences, “E-score (-0.5 to 0.5)” has its median near -0.054; the highest 2% begin near 0.39. This is one part of the list.
# Target: Ylr278c (UniProt Q05854)
# Assay: PBM E-score (8-mer binding enrichment) (E-score (-0.5 to 0.5)); higher = stronger / more preferred TF binding; most listed sequences are background and not binding sites
# Settings: protein concentration: 200 nM; construct: GST-DNA-binding domain
# Outline: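 Each ungapped eight-base word and its reverse complement, pooled, received an E-score from the Universal PBM Analysis Suite. Underlying scans, normalised with masliner, recorded fluorescent anti-GST bound to GST-tagged yeast transcription factors. These were applied at about 100-200 nM to universal all-10-mer Agilent arrays double-stranded by primer extension.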
row,Sequence,PBM E-score
1,CGGGCTCA,0.109
2,GTGTTACA,0.034
3,GACGACAA,0.149
4,AAACGCTA,-0.297
5,AGGCGATA,-0.0436
6,GCCGTAGC,0.0362
7,CGTCAGAG,-0.202
8,GGGCCTAC,-0.138
9,CACTGGCG,-0.253
10,ATGTCCCG,0.319
11,GCACCACC,0.0569
12,CCTACAAA,-0.0722
13,ACTGTGCT,-0.207
14,ACCCGAGA,0.16
15,AGACCCGG,0.292
16,CGGTGAGA,0.0291
17,CAATACAC,-0.124
18,CGCCATAC,-0.0741
19,CCGAAGTA,0.304
20,AGTTTTAT,0.0328
21,TAGAAGAA,-0.0317
22,AATCAACT,-0.0329
23,CAAATAAC,-0.0321
24,AACCATTC,-0.055

row,Sequence,PBM E-score
1,CAATGCCA,-0.0649
2,CGTTCTTA,0.0705
3,ACATCGCC,0.152
4,CGACATAG,-0.201
5,TGGCATAA,-0.0936
6,TCCTGCAA,-0.143
7,CGTACGCA,-0.00823
8,GGGGCGAC,0.00382
9,TGACTGCA,-0.293
10,CTGGAGAC,-0.222
11,AAAGGACG,-0.22
12,AAAAATTG,0.022
13,TGCATCAA,-0.153
14,ATATAAAG,0.0298
15,GGCGCATA,0.0769
16,CAAGACCG,0.248
17,ACTGCCTC,-0.05
18,CATGAGAC,-0.103
19,CTCTGAAG,-0.169
20,ATCATCCA,-0.183
21,TGGCCTAA,-0.206
22,AACCGTCT,-0.151
23,CACATCGC,0.0217
24,AAAACGTC,-0.189

row,Sequence,PBM E-score
1,AAAGCCAC,-0.0974
2,AGGCCCGC,0.169
3,GTCAAAAC,0.0952
4,GATAGTAA,0.0249
5,TATGTACA,-0.123
6,CCCACTAG,-0.143
7,GTGAGCTA,-0.185
8,CGTAAGCC,-0.00437
9,GTAGGTGA,-0.135
10,TCAGATGA,-0.109
11,AGTAATAG,-0.18
12,CGATGGCC,0.049
13,CTCGACTA,-0.158
14,AGGGGCCA,-0.124
15,CAGGGCAC,-0.1
16,GCAGTACC,-0.0729
17,ATCTGTAG,-0.138
18,TACACGGA,0.254
19,GCCACAGC,-0.111
20,AACTCAAA,-0.0947
21,AAGCGACG,0.131
22,TATCTAAA,0.0511
23,AAAAAGCC,0.263
24,AGATTGTA,-0.172

row,Sequence,PBM E-score
1,GGTTTCGA,0.0806
2,ATGGGGAG,-0.195
3,CCGGTAAG,0.337
4,GCGCTCTA,-0.0491
5,TAACGCGA,-0.0778
6,GATCGCGA,0.155
7,CTGTACAA,0.0584
8,TACGGAGA,0.386
9,TGACGAAA,-0.129
10,TAGACACA,-0.187
11,AGTTGTCA,-0.0457
12,TCTATCCA,-0.0603
13,ACTTATCA,-0.135
14,ATAAGGGG,-0.0334
15,TAATGCCA,-0.0442
16,GCCTCAAC,-0.245
17,ACTTCCTG,-0.0794
18,GAATCAAA,-0.0169
19,ATACTTAC,-0.101
20,CGATGCAG,-0.016
21,AAGAAGAA,-0.0393
22,GCGATATA,0.00114
